Laboratory results: PubChem BioAssay AID1347165 (National Center for Advancing Translational Sciences (NCATS), 2019)
Out of some 220,000 compounds screened, about 5,700 (2.6%) were called active. Roughly 18% stayed inconclusive and do not appear here. The call rests on the fitted dose curve; in most records, active means well fitted inhibition curve with a large enough effect; inconclusive means small, poorly fitted or top-dose-only effect; inactive means no such curve, though single readings can be large or run the other way. More than one record can exist for a structure, and the calls need not agree. A number of entries come with more than one value. The other results are left out here. The source may hold further records. The records of an entry repeat one measurement across runs, samples, wells, individuals or studies. Records carry a tag for their origin. Letters count within one entry.

These compounds were tested against Lysine-specific demethylase 5B (Homo sapiens) (UniProt Q9UGL1) (assay: Primary screen for KDM5B Histone Demethylases FDH-coupled qHTS). Details: FDH-coupled NADH fluorescence (FDH is formaldehyde dehydrogenase); series mostly up to 57.7 µM.
From the text: Assay Submitter (PI): Qin Yan, Ph.D. (Yale University) and Xiaodong Cheng, Ph.D. (MD Anderson) This project was funded as part of the NCI NEXT Program and Chemical Biology Consortium (CBC) The histone demethylases, KDM5A and KDM5B catalyze the demethylation of lysine 4 on histone H3 (H3K4me3/2). They are overexpressed in a variety of cancers and have been implicated in cancer cell growth, metastasis, drug resistance, and tumor growth. KDM5A is amplified and overexpressed in breast and gastric cancer; and is translocated in leukemia. While KDM5B is highly expressed in human mammary tumors and breast cancer cell lines, but not in normal adult breast tissue. […]
Materials: 1536-well Black, solid bottom, medium binding assay plate is purchased from Greiner Bio-one. […] The assay plate is incubated for 10 min at room temperature followed by addition of 1uL substrate mix (buffer + 100uM ascorbic acid, 50uM ferrous ammonium sulfate, 12.5uM H3K4Me3, 25uM a-ketoglutarate, 0.25 mM NAD+, 0.25 U/mL formaldehyde dehydrogenase using the FRD yielding a total reaction volume of 4 uL. Initial fluorescence (Read1) is detected using the PerkinElmer ViewLux plate reader equipped with 340 nm excitation and 450 nm emission filters. The final fluorescence (Read2) signal is obtained after 30 min of room temperature incubation. Delta RFU is calculated (Read2 - Read1) and is used to generated dose response curves.
Further: nearly all actives have a fitted effect of over 70% in size.
Potency means the concentration at half of the fitted maximal effect.

Sequence of UniProt Q9UGL1 (Q9UGL1 whole entry, looked up): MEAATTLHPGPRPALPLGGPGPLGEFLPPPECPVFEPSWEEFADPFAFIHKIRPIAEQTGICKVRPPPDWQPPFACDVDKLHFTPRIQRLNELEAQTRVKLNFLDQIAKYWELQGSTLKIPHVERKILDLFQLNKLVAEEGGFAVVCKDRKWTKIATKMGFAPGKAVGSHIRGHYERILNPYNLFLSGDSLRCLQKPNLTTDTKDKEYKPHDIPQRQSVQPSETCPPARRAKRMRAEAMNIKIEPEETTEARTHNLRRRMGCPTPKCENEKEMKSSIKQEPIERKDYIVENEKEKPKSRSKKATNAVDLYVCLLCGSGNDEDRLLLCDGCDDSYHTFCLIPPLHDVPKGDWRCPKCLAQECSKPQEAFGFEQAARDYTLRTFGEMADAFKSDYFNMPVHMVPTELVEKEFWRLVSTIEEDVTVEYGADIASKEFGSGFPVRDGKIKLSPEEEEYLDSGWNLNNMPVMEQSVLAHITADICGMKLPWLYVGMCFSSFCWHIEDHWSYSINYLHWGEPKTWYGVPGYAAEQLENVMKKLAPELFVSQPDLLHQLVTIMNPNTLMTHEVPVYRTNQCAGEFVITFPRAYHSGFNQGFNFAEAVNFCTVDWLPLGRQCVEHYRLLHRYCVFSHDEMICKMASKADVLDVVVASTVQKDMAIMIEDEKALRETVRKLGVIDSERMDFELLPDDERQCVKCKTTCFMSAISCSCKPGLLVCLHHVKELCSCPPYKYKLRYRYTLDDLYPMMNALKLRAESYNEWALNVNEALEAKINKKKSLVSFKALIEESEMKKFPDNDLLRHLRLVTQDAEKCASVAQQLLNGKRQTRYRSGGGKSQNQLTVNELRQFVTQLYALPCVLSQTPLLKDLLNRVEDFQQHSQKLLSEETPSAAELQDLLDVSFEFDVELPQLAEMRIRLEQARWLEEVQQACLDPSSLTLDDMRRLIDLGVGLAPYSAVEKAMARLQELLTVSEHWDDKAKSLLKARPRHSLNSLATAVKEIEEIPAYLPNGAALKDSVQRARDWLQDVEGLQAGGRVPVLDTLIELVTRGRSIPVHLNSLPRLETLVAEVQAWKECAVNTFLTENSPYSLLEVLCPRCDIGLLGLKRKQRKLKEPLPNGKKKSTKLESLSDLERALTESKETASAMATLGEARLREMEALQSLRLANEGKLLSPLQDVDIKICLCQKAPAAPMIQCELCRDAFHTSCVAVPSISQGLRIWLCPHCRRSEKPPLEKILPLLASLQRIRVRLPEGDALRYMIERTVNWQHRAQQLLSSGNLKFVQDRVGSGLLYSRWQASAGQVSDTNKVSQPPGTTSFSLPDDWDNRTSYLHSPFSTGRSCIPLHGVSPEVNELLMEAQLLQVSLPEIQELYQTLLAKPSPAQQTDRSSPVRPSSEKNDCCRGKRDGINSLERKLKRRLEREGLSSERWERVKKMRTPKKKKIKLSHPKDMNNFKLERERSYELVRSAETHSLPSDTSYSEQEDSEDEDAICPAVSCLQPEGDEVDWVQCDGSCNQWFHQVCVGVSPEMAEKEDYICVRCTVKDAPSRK

Structure (SMILES) | Potency
COc1ccc(-c2nc3ccncc3[nH]2)cc1 | active: 126 µM [sample A] and inactive [sample B]
COCCNC(=O)c1nc(-c2cc(Cl)cc(Cl)c2)c2ccccn12 | inactive [sample A] and active: 25.1 µM [sample B]
